Measured values from PubChem BioAssay AID485294 (National Center for Advancing Translational Sciences (NCATS), 2010).
The campaign covered roughly 370,000 compounds. About 150 (0.041%) were called active. The shares of active, inactive and inconclusive entries below differ from those in the screen. The call rests on the fitted dose curve; in most records, active means well fitted inhibition curve with a large enough effect; inconclusive means small, poorly fitted or top-dose-only effect; inactive means flat fitted curve, though single readings scatter. No potency is given beside an inconclusive call; the fits are too rough.

target: Beta-lactamase (Escherichia coli (strain K12)) (UniProt P00811); assay: qHTS Inhibitors of AmpC Beta-Lactamase (assay with detergent); settings: AmpC hydrolysis of nitrocefin, absorbance 480 nm, 0.01% Triton; activity change, negative = inhibition: at 114 µM (top of the series); further: nearly all actives have a fitted effect of over 25% in size;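 on activity change, negative = inhibition: 0% = no-compound wells and -100% = no-enzyme wells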
How it was run: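 20 mM phosphate pH 7.0 + 0.01% (detergent screen) or 0.0001% Triton X-100; 5.3 nM AmpC reagent; cpd preinc 15 min RT; nitrocefin (800 uM stock) to start; A480 q20 s × 4 min; Activity was normalised to no-enzyme and no-compound control wells.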
Potency means the concentration at half of the fitted maximal effect; tags describe the fitted curve by direction and shape.

UniProt P00811, sequence (P00811 whole entry, looked up): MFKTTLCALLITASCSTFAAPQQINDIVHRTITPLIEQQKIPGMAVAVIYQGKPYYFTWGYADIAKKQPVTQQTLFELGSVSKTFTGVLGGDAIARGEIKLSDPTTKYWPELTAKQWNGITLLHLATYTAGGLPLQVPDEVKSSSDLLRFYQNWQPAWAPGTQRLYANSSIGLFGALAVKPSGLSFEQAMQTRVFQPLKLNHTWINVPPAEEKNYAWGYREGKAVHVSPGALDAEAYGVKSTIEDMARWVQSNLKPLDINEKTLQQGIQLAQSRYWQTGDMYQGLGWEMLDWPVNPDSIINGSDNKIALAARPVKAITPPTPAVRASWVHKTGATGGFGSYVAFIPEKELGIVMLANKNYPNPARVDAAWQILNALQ

Compound	Potency	activity change, negative = inhibition
CCc1ccccc1NC(=O)CN(C)S(=O)(=O)c1ccc2c(c1)c(=O)n(C)c(=O)n2C	inconclusive [inhibitor, full curve]	
O=C1NC(=O)/C(=C\c2ccccc2OCc2ccccc2)S1		inactive: -0.96%
Cc1ccc2c(c1)c1c3n2CCN(C(=O)Cn2c(-c4ccccc4)noc2=O)C3CCC1 (centres undefined)	inconclusive [inhibitor, full curve, poor fit]	
COc1cccc(NC(=O)[C@@H](NC(=O)N2C[C@H]3C[C@@H](C2)c2cccc(=O)n2C3)C(C)C)c1	inconclusive [inhibitor, partial curve, poor fit]	
CCO[C@H]1OC(C(=O)Nc2ccccc2)=C[C@@H](c2cn(C(C)=O)c3ccccc23)[C@@H]1CCCO		inactive: -2.28%
Cc1cc(C)c(OCC(=O)OCC(=O)NCc2cccs2)c(C)c1	inconclusive [inhibitor, full curve, poor fit]	
CC(=O)NC(c1ccco1)c1cc(Cl)c2cccnc2c1O (centres undefined)	inconclusive [inhibitor, full curve, poor fit]	
COc1ccc(CNC(=O)Cn2cncn2)cc1OC	inconclusive [inhibitor, full curve, poor fit]	
O=C(CSc1n[nH]c(-c2cccnc2)n1)Nc1ccc(Br)cc1		inactive: -1.57%
Cc1ccccc1NC(=O)NNC(=O)OC(C)(C)C	inconclusive [inhibitor, partial curve, poor fit]	
COc1ccc(NC(=O)C(=O)N/N=C/c2cccnc2)c(OC)c1	inconclusive [inhibitor, single point]	
CC(=O)Nc1ccc(C(=O)Nc2nnc(CCc3ccccc3)s2)cc1		inactive: 4.31%
CCOC(=O)c1cc(-c2nnc(-c3ccc(Cl)cc3)o2)c(C)nc1C	inconclusive [inhibitor, partial curve, poor fit]	
O=C(CSc1nnc(-c2ccncc2)n1CC1CCCO1)Nc1ccccc1Cl (centres undefined)	inconclusive [inhibitor, single point]	
CCOC(=O)c1sc(NC(=O)CSc2nc(C)cc(C)c2C#N)c(C#N)c1C	inconclusive [inhibitor, partial curve, poor fit]	
NC(=O)c1ccsc1NC(=O)COC(=O)CNC(=O)c1ccc(F)cc1	inconclusive [inhibitor, full curve, poor fit]	
CN(C)S(=O)(=O)c1cccc(NC(=O)CC23CC4CC(CC(C4)C2)C3)c1		inactive: 6.27%
Cc1cccc(N(C)C(=O)c2coc(=O)c3ccccc23)c1	inconclusive [inhibitor, full curve, poor fit]	
Cc1c(OCc2ccc(C(=O)O)o2)ccc2c3c(c(=O)oc12)CCC3	inconclusive [inhibitor, partial curve]	
O=C(COC(=O)C1CCN(S(=O)(=O)c2cccc3cccnc23)CC1)c1ccccc1	inconclusive [inhibitor, full curve]	
CN1C/C(=C/c2ccncc2)C(=O)/C(=C/c2ccncc2)C1		inactive: -2.93%
CC(=O)Nc1ccc(S(=O)(=O)N(C)CC(=O)Nc2ccccc2N2CCCC2)cc1	inconclusive [inhibitor, partial curve, poor fit]	

Compound	Potency	activity change, negative = inhibition
CCCOc1ccc(-c2csc(NC(=O)CN3C(=O)CCC3=O)n2)cc1	inconclusive [inhibitor, full curve, poor fit]	
COC(=O)c1ccc(NC(=O)C(C)Oc2ccccc2)cc1 (centres undefined)	inconclusive [inhibitor, single point]	
OCCC1CN(Cc2cc(F)ccc2F)CCN1CCCc1ccccc1 (centres undefined)	inconclusive [inhibitor, full curve]	
Cc1nn(CC(=O)Nc2nnc(CC(=O)N3CCCC3)s2)c(=O)c2ccccc12	inconclusive [inhibitor, full curve]	
O=C1CCCC2=C1C(c1ccc(O)c(O)c1)Nc1ccc3ncccc3c12 (centres undefined)		inactive: -11.5%
CCOc1ccc(C(=O)CCC(=O)Nc2cc(C)ccn2)cc1	inconclusive [inhibitor, single point]	
CC1CCCCC1NC(=O)CSc1nnc(-c2ccccc2)n1N (centres undefined)	inconclusive [inhibitor, full curve, poor fit]	
Cc1ccc2occ(CC(=O)N(Cc3ccccc3Cl)C3CCS(=O)(=O)C3)c2c1 (centres undefined)		inactive: 6.79%
Cc1ccccc1NS(=O)(=O)c1ccc2[nH]cc(C(=O)N(C)Cc3ccco3)c(=O)c2c1	inconclusive [inhibitor, single point]	
CC(C)(C)c1nnc(N/N=C/c2cc(Br)ccc2O)n(N)c1=O		inactive: 7.13%
COC(=O)Cn1cc(C=C2C(=O)N(C)C(=O)N(C)C2=O)c2ccccc21	inconclusive [inhibitor, full curve, poor fit]	
Cc1ccc(/C=C/C(=O)Nc2ccc(S(=O)(=O)Nc3ncccn3)cc2)cc1		inactive: -4.25%
CCCCn1c(N)c(N(CC)C(=O)c2cc(C)cc(C)c2)c(=O)[nH]c1=O	inconclusive [inhibitor, partial curve, poor fit]	
COc1cc(CNCCO)ccc1OC1CCCC1	inconclusive [inhibitor, single point]	
CC(=O)N1CCN=C1SCc1c(F)cccc1Cl	inconclusive [inhibitor, full curve]	
COc1cccc(N2CCN(C(=S)Nc3ccc(F)cc3)CC2)c1	inconclusive [inhibitor, partial curve, poor fit]	
NS(=O)(=O)c1ccc(NC(=S)N2CCc3ccccc32)cc1		inactive: 1.72%
O=C(CN(c1ccc(F)cc1)S(=O)(=O)c1ccc2c(c1)OCCO2)N1CCOCC1	inconclusive [inhibitor, full curve, poor fit]	
O=C(Nc1ccccc1Br)C1CCC(=O)N1Cc1ccccc1Cl (centres undefined)		inactive: -9.42%
CC(=O)C1=C(O)C(=O)N(c2cccnc2)C1c1ccc(Cl)cc1 (centres undefined)		inactive: -2.6%
COC(=O)c1ccc(C2/C(=C(\O)c3cccc(OC)c3)C(=O)C(=O)N2CCCN(C)C)cc1 (centres undefined)	inconclusive [inhibitor, partial curve, poor fit]	
Cc1ccc(S(=O)(=O)/N=C(\CSC(N)=O)Nc2ccccc2)cc1	inconclusive [inhibitor, full curve, poor fit]	

Compound	Potency	activity change, negative = inhibition
O=C(NC1CCCCC1)NC1CCN(CC(=O)N2CCOCC2)CC1	inconclusive [inhibitor, single point]	
CC(C)Oc1ccc(C2NC(=O)NC2=O)cc1 (centres undefined)	inconclusive [inhibitor, full curve, poor fit]	
COc1ccc(-c2nnc(SCc3nnc(-c4ccccc4)o3)n2-c2ccccc2)cc1	inconclusive [inhibitor, full curve]	
N#Cc1ccc(OCC(=O)n2cc(C(=O)c3cc(Cl)cc(Cl)c3O)cn2)cc1	inconclusive [inhibitor, single point]	
COCCN(C(=O)COC(=O)CC(C)c1ccccc1)c1c(N)n(Cc2ccccc2)c(=O)[nH]c1=O (centres undefined)	inconclusive [inhibitor, full curve, poor fit]	
Cc1ccc(C2(C)NC(=O)N(CC(=O)Nc3ccc4c(c3)OCO4)C2=O)cc1 (centres undefined)	inconclusive [inhibitor, full curve, poor fit]	
Cc1nc(SCC(C)C)[nH]c(=O)c1Cc1ccccc1	inconclusive [inhibitor, full curve, poor fit]	
CC1CN(C2CCN(S(=O)(=O)c3ccccc3)CC2)CC(C)O1 (centres undefined)	inconclusive [inhibitor, partial curve, poor fit]	
c1coc(CNc2nc3sc4c(c3c3ncnn23)CCCC4)c1	inconclusive [inhibitor, full curve, poor fit]	
CC1(C)CC(=O)C2=C(C1)N(c1ccccc1)C(=O)CC2c1ccsc1 (centres undefined)	inconclusive [inhibitor, partial curve]	
CCCCn1c(N)c(N(CC(C)C)C(=O)c2cccc(OCc3ccccc3)c2)c(=O)[nH]c1=O	inconclusive [inhibitor, partial curve, poor fit]	
COc1ccc(-c2sc3ccc(OC)cc3c2-c2ccc(OC)c(F)c2)cc1		inactive: -5.66%
COc1cc(S(=O)(=O)N2CCN(c3ccccc3)CC2)ccc1Cl	inconclusive [inhibitor, full curve, poor fit]	
CN1CCN(NC(=O)c2cccc(Br)c2)CC1	inconclusive [inhibitor, partial curve]	
COc1ccc(CNC(=O)c2sccc2C)cc1	inconclusive [inhibitor, full curve, poor fit]	
COc1ccc(OCC(=O)NC2CC(=O)N(c3cccc(OC)c3)C2)cc1 (centres undefined)		inactive: 5.56%
Cc1ccc(NC(=O)CCN2CC(C)OC(C)C2)cc1C (centres undefined)	inconclusive [inhibitor, full curve, poor fit]	
CC(C)CC(C(=O)NCC1CCCO1)N(C(=O)Cn1nnc(-c2ccc(F)cc2)n1)c1ccccc1F (centres undefined)	inconclusive [inhibitor, full curve, poor fit]	
O=C(NCCN1CCC(Cc2ccccc2)CC1)C1CCN(S(=O)(=O)N2CCC3(CC2)OCCO3)CC1		inactive: 3.71%
COc1cccc(NC(=O)COC(=O)c2cccnc2)c1	inconclusive [inhibitor, partial curve]	
